Measurements as given in PubChem BioAssay AID504832 (National Center for Advancing Translational Sciences (NCATS), 2011).
The campaign covered roughly 310,000 compounds. About 18,000 (5.8%) were called active. Inconclusive results, whose numbers are uncertain, are shown with a selection of clear calls. Calls come from the whole dose curve; as a rule, active = well fitted inhibition curve with a large enough effect; inconclusive = small, poorly fitted or top-dose-only effect, or another doubt; inactive = no such curve, though single readings can be large or run the other way. Potencies of inconclusive entries are left out as doubtful fits.
Potency is the fitted concentration of half-maximal effect; tags give direction and shape of the fitted curve.

Test: Primary qHTS for delayed death inhibitors of the malarial parasite plastid, 48 hour incubation
Conditions: P. falciparum luciferase growth in erythrocytes; series mostly up to 28.7 µM
Method in brief: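 Luciferase-expressing parasites in RBCs, 2% Hct / 0.1% parasitemia final; RPMI 1640 + 0.5% Albumax; 37 C, 5% CO2, one generation; luminescence read-out, lower signal = inhibition.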
With `COc1ccc(N(CC(=O)NCCSCc2cccc(Cl)c2)S(C)(=O)=O)cc1` the Potency was inconclusive [inhibitor, single point]. In the case of `COc1ccc(CCC(=O)OCC(=O)Nc2sccc2C(N)=O)cc1`, the Potency is reported as inconclusive [inhibitor, single point]. For `Oc1ccc(/C=N\Nc2cc(N3CCOCC3)nc(N3CCOCC3)n2)c(O)c1`, the Potency was inconclusive [inhibitor, single point]. With `CCN(Cc1ccccc1)C(=O)c1cccc(S(=O)(=O)N2CCN(c3ccc(F)cc3)CC2)c1` the Potency was inconclusive [inhibitor, partial curve, poor fit]. In the case of `CCC(=O)N(CCC(Cc1ccccc1)c1ccc2c(c1)OCO2)Cc1ccccc1F` (stereo unspecified), the Potency is reported as inconclusive [inhibitor, single point]. For `COc1cccc(CNC(=O)c2ccc(Cl)c(NC3=NC4CS(=O)(=O)CC4S3)c2)c1` (stereo unspecified), the Potency was “inactive”. In the case of `CC(C)(C)C(=O)COC(=O)c1cc(-c2cccnc2)nc2ccccc12`, the Potency is reported as inconclusive [inhibitor, single point]. In the case of `Cc1ccccc1N1CC2=C(C1=O)C(c1ccccc1)NC(=O)N2C` (stereo unspecified), the Potency is reported as “inactive”. With `CN(C)S(=O)(=O)c1ccc(C(=O)Nc2ccc(CCC(=O)N3CCCC3)cc2)cc1` the Potency was inconclusive [inhibitor, partial curve]. With `COc1ccccc1CNC(=O)C1CCN(S(=O)(=O)c2ccc3c(c2)CC(C)N3C(=O)C2CC2)CC1` (stereo unspecified) the Potency was inconclusive [inhibitor, partial curve]. For `Cc1ccc(NC(=S)N2CCN(c3ccccc3F)CC2)c(C)c1`, the Potency was “inactive”. With `CC(O)c1nc2ccc(C(=O)O)cc2[nH]1` (stereo unspecified) the Potency was inconclusive [inhibitor, partial curve, poor fit]. For `CCN1CCc2c(sc(NC(=S)NC(=O)c3ccc(Cl)cc3)c2C(N)=O)C1`, the Potency was inconclusive [inhibitor, single point]. For `CC(C)Oc1ccccc1/C=N/NC(=O)c1ccccc1Cl`, the Potency was “inactive”. In the case of `Cc1onc(-c2c(Cl)cccc2Cl)c1CO/N=C(\C#N)c1c(Cl)cccc1Cl`, the Potency is reported as active: 14.7 µM. In the case of `CCN(CC)CCNCc1cc(Cl)ccc1OCc1ccccc1F`, the Potency is reported as active: 5.86 µM. In the case of `CCc1ccc(NS(=O)(=O)c2ccc3oc(=O)ccc3c2)cc1`, the Potency is reported as “inactive”. In the case of `CN(C)c1ccc(-c2c(-c3ccc4c(c3)OCO4)noc2-c2ccsc2)cn1`, the Potency is reported as inconclusive [inhibitor, full curve, poor fit]. With `COc1cccc(/C=N/NC(N)=S)c1OS(=O)(=O)c1ccccc1` the Potency was inconclusive [inhibitor, partial curve]. In the case of `Cc1ccc(C(=O)C[n+]2cc(-c3ccc(C)cc3)n3c2CCCCC3)cc1`, the Potency is reported as active: 0.415 µM. In the case of `CC1=C(C(=O)Nc2ccccc2C(=O)N2CCC(C)CC2)SCCO1`, the Potency is reported as active: 13.1 µM. In the case of `CSCC[C@H](NC(=O)c1cccc([N+](=O)[O-])c1C)c1nc2ccccc2[nH]1`, the Potency is reported as inconclusive [inhibitor, single point]. In the case of `CC1CCCN(Cc2c(O)ccc3c2O/C(=C\c2ccco2)C3=O)C1` (stereo unspecified), the Potency is reported as active: 2.33 µM. For `O=C1Nc2ccccc2C1c1ncc(C(F)(F)F)cc1Cl` (stereo unspecified), the Potency was inconclusive [inhibitor, single point]. In the case of `CCC1Oc2ccccc2N(CC(=O)NCc2cccs2)C1=O` (stereo unspecified), the Potency is reported as inconclusive [inhibitor, single point]. With `O=C(CCn1c(=O)oc2ccccc21)N1CCN(c2ccccc2Cl)CC1` the Potency was inconclusive [inhibitor, partial curve]. With `COc1cccc2c(=O)c3cccc(N)c3[nH]c12` the Potency was inconclusive [inhibitor, single point]. For `Cc1ccnc(NC(=O)CCc2c(C)nc3ncnn3c2C)c1`, the Potency was “inactive”. In the case of `COc1ccc(C2CC(=O)C3=C(C2)NC(C)=C(C(=O)Nc2ccccc2C)C3c2coc3ccc(C)cc3c2=O)cc1OC` (stereo unspecified), the Potency is reported as active: 2.33 µM. With `COc1cccc(/C=N/c2nc3ccccc3[nH]2)c1O` the Potency was “inactive”. In the case of `O=C(Nc1ccc(-c2csc(Nc3cccc(C(F)(F)F)c3)n2)cc1)c1cc([N+](=O)[O-])cc(C(F)(F)F)c1`, the Potency is reported as active: 0.828 µM. With `COc1ccc(OC[C@@H](O)CNC(=O)c2cccc3c2C(=O)c2ccc(Cl)cc2S3(=O)=O)cc1` the Potency was inconclusive [inhibitor, single point]. In the case of `COc1ccc(S(=O)(=O)N2CCCCC2)cc1NC(=O)[C@@H]1CCCN1C(=O)c1cccs1`, the Potency is reported as inconclusive [inhibitor, single point]. With `CC(=O)N1c2ccc(S(=O)(=O)N(C)Cc3ccccc3)cc2CC1C` (stereo unspecified) the Potency was “inactive”. In the case of `CC(C)(CNC(=O)Cc1ccc(Br)cc1)N1CCOCC1`, the Potency is reported as “inactive”. For `CCC(=Cc1ccc(CC)cn1)CC`, the Potency was inconclusive [inhibitor, partial curve, poor fit]. In the case of `COc1ccc(NC(=O)CSc2nc3sc4c(c3c(=O)n2-c2ccc(OC)cc2)CCN(C)C4)cc1`, the Potency is reported as inconclusive [inhibitor, single point]. For `CCOc1ccccc1NC(=O)C12CC3CC(C1)CC(c1ccc(C)cc1)(C3)C2`, the Potency was inconclusive [inhibitor, full curve]. With `O=C(Nc1ccc(Br)cc1)c1cccc(N2C(=O)C3C4CCC(C4)C3C2=O)c1` (stereo unspecified) the Potency was “inactive”. With `Cc1cc(C)n(-c2nc(N(C)C)nc(N(C)C)n2)n1` the Potency was inconclusive [inhibitor, single point]. With `COc1ccc(/C=C/C2=CC(C)(C)NC(=S)N2)cc1OC` the Potency was inconclusive [inhibitor, single point]. With `Cn1c(CCN2CCOCC2)nc2cc(NC(=O)COc3ccccc3)ccc21` the Potency was “inactive”. In the case of `CCCn1nc(C(=O)N2CCN(S(=O)(=O)c3ccc(C)c(C)c3)CC2)c2ccccc2c1=O`, the Potency is reported as active: 11.7 µM. For `Cc1ccc2oc(=O)c3cc(C(=O)NCCN4CCc5ccccc5C4)sc3c2c1`, the Potency was active: 4.65 µM. With `O=C1OC(Nc2nc(-c3ccc(F)cc3)cs2)c2ccccc21` (stereo unspecified) the Potency was inconclusive [inhibitor, single point]. With `COc1ccc(S(=O)(=O)N2CCCCCC2)cc1C(=O)N(C)Cc1c(F)cccc1Cl` the Potency was inconclusive [inhibitor, single point]. With `CC1=NN(c2ccccc2)C(=O)C1C(=O)C(=O)Nc1ccc(F)cc1` (stereo unspecified) the Potency was “inactive”. With `Fc1ccccc1/C=N/Nc1nc(N2CCCCC2)nc(N2CCCCC2)n1` the Potency was inconclusive [inhibitor, partial curve, poor fit]. With `O=C(NCc1ccc(Cl)cc1)C1CCCN(C(=O)c2ccc(Cl)cc2)C1` (stereo unspecified) the Potency was inconclusive [inhibitor, single point]. With `CCCC(=O)Nc1cc(-c2nn(C)c(=O)c3ccccc23)ccc1OC` the Potency was inconclusive [inhibitor, single point]. With `COc1ccccc1C(=O)NC(CCSC)C(=O)NCc1ccncc1` (stereo unspecified) the Potency was inconclusive [inhibitor, single point]. With `C=CCOc1ccc(CN(C)CC(=O)N(CC(C)C)c2c(N)n(CC(C)C)c(=O)[nH]c2=O)cc1` the Potency was “inactive”. With `O=C1/C(=C/c2c[nH]c3ccccc23)CCC/C1=C\c1c[nH]c2ccccc12` the Potency was inconclusive [inhibitor, single point]. In the case of `Cc1ccc(C(C)C)cc1OCC(=O)NC1CCCCCCC1`, the Potency is reported as inconclusive [inhibitor, single point]. In the case of `COc1cc(CC(NC(C)=O)C(=O)NC2CCN(C(=O)Nc3ccccc3C)CC2)cc(OC)c1` (stereo unspecified), the Potency is reported as “inactive”. In the case of `O=C(NCc1cccc2[nH]ccc12)C1CCC(=O)N(CCc2ccccc2)C1` (stereo unspecified), the Potency is reported as “inactive”. With `O=C(CCC(=O)Nc1ccc(F)cc1)N/N=C/c1cccnc1` the Potency was “inactive”. With `O=C1CCCN1Cc1ccccc1` the Potency was “inactive”. For `COc1cccc(CN(Cc2ccco2)S(=O)(=O)c2ccc(S(=O)(=O)NCc3ccccc3)cc2)c1OC`, the Potency was active: 13.1 µM. For `Cc1ccccc1C(=O)c1cccn1CC(=O)NCc1cccc(Cl)c1`, the Potency was “inactive”. For `O=C(c1ccc2c(c1)N(Cc1ccc(F)cc1)CCS2)N1CCC2(CC1)OCCO2`, the Potency was inconclusive [inhibitor, single point]. For `C/C(=N\Nc1ccc(Cl)c(Cl)c1)c1ccc(-n2ccnc2)cc1`, the Potency was active: 11.7 µM. For `COc1ccccc1CNC(=O)c1cc(C)nc2ccccc12`, the Potency was inconclusive [inhibitor, single point]. In the case of `Cc1ccc(C)c(S(=O)(=O)N2CCCC2CNC(=O)C(=O)NCc2ccccn2)c1` (stereo unspecified), the Potency is reported as “inactive”. In the case of `COc1ccc(/C=N/Nc2ncnc3sc4c(c23)CCCC4)cc1OC`, the Potency is reported as “inactive”. With `COc1ccc(CNC(=O)C(c2ccco2)N(Cc2ccccc2)C(=O)Cc2cccs2)cc1` (stereo unspecified) the Potency was inconclusive [inhibitor, single point]. For `CCCOc1ccc(C(O)CCNC(CC(=O)O)c2ccccc2)cc1` (stereo unspecified), the Potency was “inactive”. In the case of `CN(C)CCNc1c2c(nc3ccccc13)CCC2`, the Potency is reported as inconclusive [inhibitor, partial curve, poor fit]. In the case of `COc1cccc(S(=O)(=O)NCc2ccc(C(=O)N3CCN(c4ccccc4OC)CC3)cc2)c1`, the Potency is reported as active: 7.38 µM. In the case of `COc1cc(-c2c(NC(=O)c3ccco3)oc3ccccc3c2=O)cc(OC)c1OC`, the Potency is reported as inconclusive [inhibitor, single point]. For `CC(=O)N(Cc1ccccc1C)c1cccc(C)c1C`, the Potency was inconclusive [inhibitor, partial curve, poor fit].
